# Data taken from PubChem BioAssay AID488969 (Vanderbilt High Throughput Screening Facility, 2010).
# In all, about 110,000 compounds were measured (“z-score”: median about -0.1, highest 2% from about 2 on). Some of the results follow.
# Target: Metabotropic glutamate receptor 8 (Rattus norvegicus) (UniProt P70579)
# Experiment: mGluR8 Gi/Go-coupled signaling modulation – cell-based, rat, thallium flux, HTS, primary screen (AID 488969)
# Conditions: HEK293 rat mGluR8, GIRK (G protein-gated inwardly rectifying potassium channel) thallium flux, FluoZin2; at 10 µM; stronger effect = higher value; submaximal glutamate (EC20) added with thallium
# Chain of UniProt P70579 (P70579 whole entry, looked up): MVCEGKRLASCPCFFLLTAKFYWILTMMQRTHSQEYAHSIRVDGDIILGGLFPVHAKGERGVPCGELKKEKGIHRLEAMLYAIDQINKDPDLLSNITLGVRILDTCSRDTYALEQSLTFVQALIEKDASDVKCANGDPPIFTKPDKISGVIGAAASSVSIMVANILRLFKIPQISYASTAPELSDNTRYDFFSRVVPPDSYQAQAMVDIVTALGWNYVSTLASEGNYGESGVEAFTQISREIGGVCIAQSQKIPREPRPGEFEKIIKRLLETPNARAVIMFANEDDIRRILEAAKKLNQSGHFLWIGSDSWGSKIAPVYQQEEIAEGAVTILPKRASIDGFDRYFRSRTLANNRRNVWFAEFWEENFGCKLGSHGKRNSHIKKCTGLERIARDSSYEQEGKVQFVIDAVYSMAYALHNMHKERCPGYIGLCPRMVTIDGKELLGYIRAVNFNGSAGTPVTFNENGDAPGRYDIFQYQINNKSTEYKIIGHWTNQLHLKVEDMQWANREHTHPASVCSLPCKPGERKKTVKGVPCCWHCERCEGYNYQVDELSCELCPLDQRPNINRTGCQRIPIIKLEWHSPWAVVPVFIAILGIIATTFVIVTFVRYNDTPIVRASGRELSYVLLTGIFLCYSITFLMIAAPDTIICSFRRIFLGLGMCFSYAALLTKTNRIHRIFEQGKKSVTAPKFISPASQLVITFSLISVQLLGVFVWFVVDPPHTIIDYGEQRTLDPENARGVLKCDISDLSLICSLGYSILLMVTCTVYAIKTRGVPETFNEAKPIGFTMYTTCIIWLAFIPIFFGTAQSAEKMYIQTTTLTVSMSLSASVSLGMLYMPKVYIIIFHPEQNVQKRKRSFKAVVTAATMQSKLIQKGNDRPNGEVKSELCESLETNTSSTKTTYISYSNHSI
row,SMILES,z-score
1,O=C(CCCc1nc2ccccc2s1)NC(c1ccccc1)c1ccccc1,-0.315
2,O=C(CN1CCCC1)N/N=C/c1ccc(-c2cccc(Cl)c2)o1,-0.192
3,COc1ccccc1C1CC(=O)Nc2cc3c(cc21)OCCO3 (stereo not given),0.272
4,Cc1cccc(NC(=O)C2CCCN(C(=O)Nc3ccccc3)C2)c1C (stereo not given),0.55
5,O=C(Nc1ccc(Cl)cc1)c1cc2nc(-c3ccco3)cc(C(F)(F)F)n2n1,-0.181
6,O=C(Cc1cccc2ccccc12)N1CCCc2ccccc21,-0.0088
7,CC(C)CCn1c(=O)c2ccccc2c2ccccc2c1=O,0.474
8,O=C(CCCC(=O)N(CC(=O)NC1CCCCC1)Cc1ccc2c(c1)OCO2)Nc1ccccn1,-0.358
9,O=C(CN1CCSCC1)N/N=C/c1ccc(F)c(F)c1,-0.167
10,CCOc1ccc(NC(=O)C2CCCN(S(=O)(=O)c3c(C)nn(C)c3C)C2)cc1 (stereo not given),-0.442
11,Cc1ccc(S(=O)(=O)N(C(=O)c2ccncc2)c2ccc(OC(=O)c3ccncc3)c3ccccc23)c(C)c1,0.37
12,CCC(=O)NNc1ncnc2ccccc12,-0.196
13,Cc1nc(Cc2nnc(SCc3nc(N)nc(Nc4ccccc4C)n3)o2)cs1,-0.183
14,CSc1nnc(N(CCC#N)CCC#N)s1,-0.113
15,CN1C(=O)CC(C(=O)O)SC1=Nc1cc(Cl)c(O)c(Cl)c1 (stereo not given),0.0261
16,COc1ccc(C(NC(=O)/C=C/c2ccco2)c2ccc(OC)c(OC)c2)cc1 (stereo not given),-0.0995
17,C/C(NCCN1CCOCC1)=C(\C#N)C(N)=O,-0.809
18,CN(C)S(=O)(=O)c1ccc(C(=O)Nc2ccnn2C2CCCCC2)cc1,-0.332
19,CC1CCCCC12NC(=O)N(CC(=O)Nc1ccc(S(=O)(=O)N3CCOCC3)cc1)C2=O (stereo not given),0.163
20,O=C(/C=C/c1ccccn1)c1ccc(Br)cc1O,-0.442
21,CS(=O)(=O)N(CC(=O)Nc1cccc(F)c1)c1cccc([N+](=O)[O-])c1,0.126
22,COc1cccc(/C=N\NC(=O)c2cc(OCC(F)(F)F)ccc2OCC(F)(F)F)c1,-0.169
23,Cc1cc(C)nc(-n2nc(C)c3c(C)c(C)c(C)nc32)n1,0.0323
24,COc1ccc(NC(=O)CN(c2ccc(C(C)C)cc2)S(=O)(=O)c2c(C)noc2C)cc1OC,-0.602
25,CC(/C=C/c1ccc2c(c1)OCO2)=N/NC(=O)C1COc2ccccc2O1 (stereo not given),-0.296
26,CN(C)c1ccnc2sc3c(=O)n(Cc4ccccc4)cnc3c12,-0.622
27,CCCCNc1nc2ccccc2[nH]1,0.348
28,Cc1c(/C=N/NC(=O)COc2ccccc2[N+](=O)[O-])c2ccccc2n1C,-0.244
29,O=C(Nc1nonc1NC(=O)C1CCCCC1)C1CCCCC1,-0.205
30,O=C(Nc1ccc(-c2nc3ncccc3o2)cc1)c1ccco1,0.0382
